Measurements published in ChEMBL document CHEMBL4888484, “Replenishing the malaria drug discovery pipeline: Screening and hit evaluation of the MMV Hit Generation Library 1 (HGL1) against asexual blood stage Plasmodium falciparum ,using a nano luciferase reporter read-out” (2022).
In all, about 150,000 compounds went through this assay and about 540 (0.36%) showed an effect of 50% or more. Some of the results follow.

System: Plasmodium falciparum
Assay: Primary screen in NF54 nanoGlo assay, in single point, at 2uM, 72h; a lower Z score goes with more inhibition
Assay type: functional, Erythrocyte
Conditions: timepoint 72 hour

Structure (SMILES)	% Inhibition [%]	Z score
Cc1cc(CNC(=O)N[C@@H]2CCc3cc(F)ccc32)on1	-7	0.96
Cc1csc2c(NCCN3CCc4ccccc4C3=O)ncnc12	-8	1.47
O=C(Nc1cc2c(cn1)CCC2)N1CC2(CCCC2)C1	8	-0.89
NC(=O)[C@H](Cc1ccccc1)n1cnc2c(F)cccc2c1=O	-8	1.52
COC[C@H](NC(=O)c1cnc(-c2csc(C)n2)nc1O)c1ccnn1C	1	-0.18
Cc1cnc(OC2CCN(Cc3ccncc3Cl)CC2)nc1	13	-1.77
Cc1nc(-c2nc(CN3CCOC3=O)n(Cc3ccccc3C)n2)cs1	-5	1.09
Cc1noc(C)c1CN1C(=O)[C@@H]2CC[C@H]1CN(c1ncccn1)C2	-8	1.61
CCCc1ncc(C(=O)N[C@H]2CCCC[C@@H]2O)s1	1	-0.11
Cc1cccc(C(=O)NC[C@@]23CCCC=C2NC(=O)CC3)c1	-6	0.91
CCN(Cc1nccn1C)c1ccc(-c2nc(C(C)C)no2)cn1	-3	0.5
Cc1cc(C)c(C(=O)NCC#C[C@@H]2CCCCO2)c(C)n1	-23	2.49
COC(=O)C[C@@H](C)CC(=O)Nc1nnc(C2CCCC2)[nH]1	-12	2.56
CCc1ccc(-c2nn(CC)c(=O)c3c2CCCC3)cc1S(=O)(=O)N(CC)CC	8	-1.58
O=C(NCc1ccccc1CN1CCCCC1)c1coc(Br)c1	-5	0.89
Cc1cccc(S(=O)(=O)N2CCc3nc(-c4ccc(Cl)cc4)ncc3C2)c1	-9	1.45
CC1(C)CN(C(=O)c2ccnc(-n3cccn3)c2)[C@H]2COC[C@H]21	-9	1.71
CCN1CC2(CCN(c3cccc([C@H](C)O)n3)CC2)CC1=O	-13	1.64
CCC1CCC(CNC(=O)C2(N)CCC(O)C2)CC1 (stereo unspecified)	13	-1.6
CN1CCO[C@@H]2CN(C(=O)NCc3noc(C4CC4)n3)C[C@@H]21	-6	0.85
CC(=O)NC1CCC(Nc2cnn(CCC(C)C)c2C)CC1 (stereo unspecified)	-6	0.63
Cc1ccc2[nH]cc(CCC(=O)N3CCc4ccccc4[C@@H]3C(=O)O)c2c1	-1	0.17

Structure (SMILES)	% Inhibition [%]	Z score
COc1cccc(Cn2cccc(N)c2=O)n1	-9	1.36
COc1cccc2ncnc(N3CCC[C@H](n4cc(CO)nn4)C3)c12	-5	0.48
CCOc1cc([C@@H]2c3c(-c4cc(C)cc(C)c4O)n[nH]c3C(=O)N2Cc2ccc(F)cc2)ccc1O	-5	0.61
Cc1cc(F)ccc1CC(=O)N1CCC[C@H](c2ccn(CC(=O)O)n2)C1	-10	1.51
CCNCc1c(Cl)cccc1Cl	-8	0.92
Cc1cc(-c2nnn(CC[C@H]3CCCC3=O)n2)ccc1F	-8	0.85
CC1CN(C(=O)c2cnc3[nH]c(=O)[nH]c3c2)CC1(C)CO (stereo unspecified)	-1	0.12
COCCOCCCC(=O)N(CC1CC1C)C(C)C (stereo unspecified)	-18	2.34
Cc1nc(N2C[C@H]3CCC[C@@H](C3)C2)c2ccccc2n1	-9	1.54
CCS(=O)(=O)NCCc1ccc(S(=O)(=O)Nc2ccc(C(C)(C)C)nn2)s1	-1	0.12
CCC1(CC)CCC(NC(=O)[C@@H]2CCCCC(=O)N2)CC1	35	-5.02
Cc1cccc(NC(=O)Cn2cc(S(=O)(=O)N3CCCCCC3)ccc2=O)c1C	-9	1.77
C[C@H]1CC(=O)Nc2ccccc2N1C(=O)c1ccc(S(=O)(=O)N2CCOCC2)cc1	-15	1.27
O=C(CC(c1ccccc1)c1ccccc1)N1CCc2ccccc21	4	-0.52
Cc1nc(C2(NS(=O)(=O)c3c(C)noc3C)CCC2)no1	-13	1.64
NC(=NOCC(=O)Nc1ccc2c(c1)OCCCO2)c1cccs1	-9	0.86
COc1c(NC(=O)C2=C(C)Oc3ccccc3C2)c(C)nn1C	2	-0.17
CCC(=O)Nc1ccc(-c2ccc(OC)nc2)c(C)n1	1	-0.1
Cc1ccc(Oc2ncccc2CNC(=O)CCn2cncn2)c(F)c1F	8	-0.91
O=C1[C@H]2CN(c3ncnc4nc[nH]c34)C[C@H]2C(=O)N1Cc1ccccc1	-7	1.21
Cc1ccc(Br)c(C(=O)NCCCO[C@H]2CCOC2)c1	10	-1.55
